Source: the supplement of paper PMC11417369
This is one part of the list.

Each sequence was assayed on PfSIP2 AP2 domain 1 (GST-tagged) (assay: gcPBM binding intensity (ln(normalized median fluorescence intensity)); higher = stronger DNA binding).
Summary of the method: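 Binding intensity is defined as the maximum Masliner-normalised natural-log median intensity across replicate spots for either probe orientation. It was measured on an Agilent 4 × 180k array of primer-extended double-stranded 36-bp intergenic genomic probes and negative controls, to which GST-tagged P. falciparum DNA-binding domains made in E. coli were applied for 1 h in 1× PBS with 1% milk, 0.2 mg/ml BSA, 0.5% salmon testes DNA and 0.03% Triton X-100. Detection was by Alexa488 anti-GST antibody and scanning at 488 nm.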

| Sequence | gcPBM binding intensity (ln) |
| --- | --- |
| GGAAAATCTTTATAATGTACATTATGATTATATAAT [XGTACX_site6256] | 7.01 |
| AAATATAAAGTGCACACACACAAAAAAAGAAAAAAA [CACACA_site6452] | 11.2 |
| TTATTTTTTTTAAATTGTACAAGGAACAGTGAAAAA [XGTACX_site4380] | 7.83 |
| TTTGTGTGTACGCGTGTGCACATTTTTTTTTTTTTT | 9.36 |
| TAAATGTCTTCAATGAAGTGGAAATGCTGTTATATA [CACACA_negctrl_site1155] | 6.96 |
| TATATAACCTATAGCACACATATATAATATATATTA [CACACA_site1834] | 6.98 |
| AAATGTAATATAAATAGTACATATTAAATAAAATTA [XGTACX_site6917] | 6.86 |
| ATGTGCACATATAAAAGTACACGCACATATATATAT [XGTACX_site1238] | 9.66 |
| TGCACAAAGTTATGCACACACCTAAAATTAATTTTT [CACACA_site7385] | 8.69 |
| TATACACATATATACACACACATATATAAATAAATA [CACACA_site7579] | 7.26 |
| TTATAATATGTATACACACACATATATAGATATATA [CACACA_site7159] | 7.1 |
| ATTCTTTATATGCATACACACCTAATATAGGGACCT [CACACA_site6830] | 7.49 |
| GTACATAGGTATAGCACACACAAATGTAGGTATTTT [CACACA_site4049] | 6.77 |
| AAAAAAAAAAAAAAAACACACATAAAAATATAATAA [CACACA_site3855] | 7.48 |
| ATTATATATAATATAGTGCATGTAAAAAATAAAACA | 10 |
| AAGAATATTATAAACACACACTTTATAAAGAATTAT [CACACA_site4241] | 6.87 |
| TATATAATTGTCTTCACACACACATATATATATATA [CACACA_site2744] | 9.25 |
| TATTTTATTTGTATATTCATTTGTATAATATAAATA [TGCATGCA_negctrl_site267] | 6.79 |
| AAGGAAAAGTAAAGAAGTACTGTACCGCCAAAAAAA [XGTACX_site2607] | 6.98 |

| Sequence | gcPBM binding intensity (ln) |
| --- | --- |
| AATTTATTTTTTTGATGTACATACAATTTATCACAA [XGTACX_site5936] | 7.3 |
| TTGATGTTGGTAGGATGTACGGTACCGGTAGTATTT [XGTACX_site6642] | 6.98 |
| AAAATAATAAAAAGGGGTACAAAGAAACAAATATAA [XGTACX_site296] | 7.09 |
| TATGTGCATATAAACTCACACATTGTATATTACATG [CACACA_site6106] | 9.08 |
| TTTATTAAAATATTCTCACACACCAAAATATGTATG [CACACA_site932] | 6.78 |
| ATAAAATAACACAACGTTGACAAATTTGGATGACTC [XGTACX_negctrl_site324] | 7.08 |
| ATATATGTAGATATATGTACATATATAGGTAGATAT [XGTACX_site7589] | 7.23 |
| AAAAATTTATTTAAAAGTACATAAAATAAAGGTGGA [XGTACX_site7591] | 7.4 |
| ATTTTAGAATTTAATACACACAAAAAAAAAAAATTA [CACACA_site3704] | 6.86 |
| TATTACATTATATAAACATGCAAAACTATATATTAT [TGCATGCA_site601] | 7.03 |
| TATATATGTGTATAGAGTACACGTTTTTTTTAATAT [XGTACX_site3128] | 6.94 |
| AAAAACCTGAACTGTGCATGTCATACTTTTACTTTT [TGCATGCA_site73] | 7.55 |
| TAAATACATCTATGCACACAAAAAAATATATATTTT [CACACA_site5027] | 7.76 |
| TGTATAAACTTTACGTGTACATGAATAATCTATAAT [XGTACX_site3801] | 7.12 |
| AAAATGGAACTAGGAATAATATAAGAAGATAAAAGG [XGTACX_negctrl_site347] | 7.3 |
| TTGTACAAAAATAATGCACACTATATCAAGTTTTTT [CACACA_site5898] | 7.33 |
| TTTATAAATTCTCTTTTTAAAAAATATTTTTATACT [CACACA_negctrl_site427] | 6.63 |
| AAAATAATTTTATAAGTGCAAAATAGCTTATTTATA | 7.75 |
| TAATCATTTTAGCTTACACACAAAATTTTGTTATAA [CACACA_site2939] | 6.93 |

| Sequence | gcPBM binding intensity (ln) |
| --- | --- |
| TATACGTATTACAGAGTGCAATAAACAGTATATATT | 7.92 |
| GTAAAACAGATTTACAGTACACATGTGTTATGTTTT [XGTACX_site2933] | 7.01 |
| TTTTTATATTTTATTATTTTTTTTATATAAAAAATT [CACACA_negctrl_site601] | 7.02 |
| ATAAAAATATTTGAATGTACTTATAAGATATATATA [XGTACX_site4257] | 7.15 |
| TTTATATATAAATAATGTACAAAAAATTTTAAAAAG [XGTACX_site7990] | 7.27 |
| AAATCGTGCACGGACACATGCAGTAGCCGAGAATTA [TGCATGCA_site733] | 8.89 |
| TATTTTAATTTTTGTTGTACGCAAATGTGAGGGCAT [XGTACX_site4663] | 7.4 |
| TAAACCAAAAAAAGTAGTACAAATATTATAAAAAAA [XGTACX_site8497] | 6.96 |
| GATGTATTCATACATGCACACGTACATATTTAAATA [CACACA_site9299] | 7.21 |
| GTTCATAAATTAAACACACACACACGGCTGGATACC [CACACA_site7545] | 7.35 |
| AGGTAGAAAAAAGACACACACATTAGATATTTATAT [CACACA_site6313] | 6.87 |
| GTTCAAATTATTATGTGTACTAAAGAATATTTTAAA [XGTACX_site3166] | 7 |
| CTTTATTTTTTATACACACACAATATGTATTTATAT [CACACA_site5879] | 7.35 |
| TCTATTTTTTATATGGTGCATTGTTCTTATTAATAT [GTGCAC_site9392] | 10.5 |
| AGGAAAAATAATTATTCACACAATAAATATATTTGA [CACACA_site5824] | 6.82 |
| AATTAATTTATGTTACGTACATAAGTATTATATTTT [XGTACX_site388] | 7.28 |
| TATTAACACTTTATAGAAACAAAAAAATAAGCAAAA [XGTACX_negctrl_site295] | 7.14 |
| TTTGAATTTTTTAACACACACATGTGTGGATATATA [CACACA_site6872] | 6.96 |
| AAATTTATATAATATTGTACATTAAAAATTATATAT [XGTACX_site8009] | 7.06 |
